Assay [1] deals with T1, Human GIPR ECD (GIPR extra cellular domain) (human).
T1 construct: The published benchmark structures (6dkj, 4hj0) used their own ECD constructs
T1 chain: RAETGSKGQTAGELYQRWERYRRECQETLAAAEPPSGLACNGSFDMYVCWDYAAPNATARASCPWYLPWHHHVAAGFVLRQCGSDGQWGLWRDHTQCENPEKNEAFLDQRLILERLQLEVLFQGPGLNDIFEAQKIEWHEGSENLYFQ
Nature of the assay: SPR (Biacore 8K, 37 C); antibody captured on anti-human IgG, human GIPR ECD as analyte; 1:1 model.

Assay [2] addresses T2, human GIPR (hGIPR), full length (human, UniProt P48546 22-466).
T2 sequence: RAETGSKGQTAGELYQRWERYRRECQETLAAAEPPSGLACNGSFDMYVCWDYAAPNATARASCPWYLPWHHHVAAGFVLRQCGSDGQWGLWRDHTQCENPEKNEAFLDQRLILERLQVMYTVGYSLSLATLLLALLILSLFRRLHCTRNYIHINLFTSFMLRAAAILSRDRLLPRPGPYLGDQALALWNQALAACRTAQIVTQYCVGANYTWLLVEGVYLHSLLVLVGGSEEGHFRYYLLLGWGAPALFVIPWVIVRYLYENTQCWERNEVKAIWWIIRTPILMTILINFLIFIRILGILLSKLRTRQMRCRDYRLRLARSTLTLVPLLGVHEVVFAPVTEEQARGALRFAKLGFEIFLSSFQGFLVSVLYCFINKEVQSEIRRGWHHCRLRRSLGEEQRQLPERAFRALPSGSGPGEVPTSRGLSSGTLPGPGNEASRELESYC
The assay is described as follows: cell-based or functional assay.

The term Kd denotes the equilibrium constant for the complex coming apart. What is called koff is the first-order rate constant of dissociation. One may read the kon as the rate constant with which the complex forms. A higher kon goes with fast association.

B1: anti-GIPR antibody GIPR-0107 (antibody, human IgG1, lambda)
heavy: QVQLVQSGAEVKKPGSSVKVSCKASGYTFSSYAINWVRQAPGQGLEWMGGIVPIFGIANYAQKFQGRVTITADESTSTAYMELSSLRSEDTAVYYCARGSDYVVPHFDYWGQGTLVTVSSASTKGPSVFPLAPSSKSTSGGTAALGCLVKDYFPEPVTVSWNSGALTSGVHTFPAVLQSSGLYSLSSVVTVPSSSLGTQTYICNVNHKPSNTKVDKKVEPKSCDKTHTCPPCPAPEAAGAPSVFLFPPKPKDTLMISRTPEVTCVVVDVSHEDPEVKFNWYVDGVEVHNAKTKPREEQYNSTYRVVSVLTVLHQDWLNGKEYKCKVSNKALPAPIEKTISKAKGQPREPQVYTLPPSREEMTKNQVSLTCLVKGFYPSDIAVEWESNGQPENNYKTTPPVLDSDGSFFLYSKLTVDKSRWQQGNVFSCSVMHEALHNHYTQKSLSLSPGK
light: QSVLTQPPSASGTPGQRVTISCSGSSSNIGSNYVYWYQQLPGTAPKLLIYRNNQRPSGVPDRFSGSKSGTSASLAISGLRSEDEADYYCAAWDDSLSGVVFGGGTKLTVLGQPKAAPSVTLFPPSSEELQANKATLVCLISDFYPGAVTVAWKADSSPVKAGVETTTPSKQSNNKYAASSYLSLTPEQWKSHRSYSCQVTHEGSTVEKTVAPTECS
notes: also called GIPR-1017
As for B1, in assay [1], binding was put at a Kd of 13.8 nM, the koff was 0.00501 s⁻¹ and the kon worked out at 363000 M⁻¹ s⁻¹. Moreover, in assay [2], the “Human GIPR-CHO cAMP Antagonist Activity IC50” value was 14.4 nM.

(Values after patent publication US20250163168A1 (Pfizer, published 2025).)
